Measurements published in PubChem BioAssay AID686979 (National Center for Advancing Translational Sciences (NCATS), 2013).
In all, about 420,000 compounds went through this assay and about 50,000 (12%) were called active. Inconclusive results, whose numbers are uncertain, are shown with a selection of clear calls. Calls follow the shape of the dose curve; as a rule, active = well fitted inhibition curve with a large enough effect; inconclusive = small, poorly fitted or top-dose-only effect; inactive = flat fitted curve, though single readings scatter. Potencies of inconclusive entries are left out as doubtful fits.

experiment: qHTS for Inhibitors of human tyrosyl-DNA phosphodiesterase 1 (TDP1): qHTS in cells in presence of CPT; settings: chicken DT40 Tdp1-/-;hTDP1 cells + 20 nM CPT, ATP luminescence, 48 h; activity change, negative = growth inhibition: at 46.2 µM (top of the series); also: nearly all actives have a fitted effect of over 55% in size
How it was run: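 Chicken DT40 Tdp1-/- cells complemented with human TDP1, 400 cells/well, exposed to compounds plus 20 nM camptothecin for at least 48 h at 37 C; viability read as ATP content by CellTiter-Glo luminescence.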
% is scaled to controls: 0 for no effect and ±100 for the full control effect; potency is read from the fitted curve at half-maximal effect; tags tell the direction and shape of the fitted curve.

Compound	activity change, negative = growth inhibition	Potency
COc1ccccc1C1CN(Cc2cccc(C)n2)Cc2ccccc2O1 (configuration not stated)	inactive: -29.9% [at 9.04 µM]	–
CCC(C)(C)NC(=O)CN(C(=O)C(=O)Nc1ccc2c(c1)OCCO2)C(C)(C)CC	–	inactive
CC(C)OC(=O)Cc1nc2sc(-c3ccccc3)cc2c(=O)[nH]1	–	inconclusive [inhibitor, single point]
Cc1noc(C)c1COc1ccccc1C(=O)NNC(=O)c1ccccc1F	–	inactive
Cc1cc(C)c(OCC(=O)OCC(=O)NNC(=O)c2ccccc2F)c(C)c1	–	inactive
COc1cc(OC)nc(Oc2ccccc2/C=N/O)n1	–	inconclusive [inhibitor, single point]
CC(=O)c1ccc(NC(=O)Cn2nc(C)cc2C)cc1	–	inactive
O=S(=O)(NCc1ccccc1)c1ccc(S(=O)(=O)N(Cc2ccccn2)C2CCCC2)cc1	–	inconclusive [inhibitor, single point]
CC(Sc1nc2ccccc2n1C)C(=O)Nc1ccc(N2CCOCC2)cc1 (configuration not stated)	–	inactive
NC(=O)NC(CC(=O)OCC(=O)Nc1nnc(-c2ccccc2)o1)c1ccc(Cl)cc1 (configuration not stated)	–	inactive
Cc1cc2nc(/C=C/c3cccnc3)[nH]c2cc1C	–	active: 0.0184 µM
O=C(CC(c1ccccc1)c1ccccc1)NCc1cccnc1	–	inconclusive [inhibitor, single point]
CCNc1ncc2nc(-c3cccs3)c(=O)n(C[C@H]3CCCO3)c2n1	–	inactive
CC(C)CC(COCc1ccc(C(F)(F)F)cc1)N1CCN(C(=O)c2ccc(C(F)(F)F)cc2)CCC1=O (configuration not stated)	–	inconclusive [inhibitor, single point]
CC(=O)N1c2nc(C(C)C)nn2C2(CCCCC2)[C@@H]2CCCC[C@@H]21	–	active: 4.11 µM
O=C(C1CC1)N1CCN=C1SCc1cccc(C(F)(F)F)c1	–	inconclusive [inhibitor, single point]
CC(NC(=O)c1ccccc1OC(F)F)c1ccc(-n2ccnc2)cc1 (configuration not stated)	–	inactive
CCOC(=O)[C@H](CCc1ccccc1)N[C@@H](C)C(=O)N1[C@H](C(=O)O)C[C@H]2CCCC[C@@H]21	–	inactive
CC(=O)Nc1ccc(N=C(C2=C(O)c3ccccc3C2=O)c2ccccc2)cc1	–	active: 3.26 µM
NC1=NC[C@H](Cc2ccccc2)N1CC1CCCCC1	–	active: 10.3 µM
CCCC(=O)c1ccc(N2CCN(C(=O)OCC)CC2)c(F)c1	inconclusive: -31% [inhibitor]	–
CC(C)CN(CCCNC(=O)c1cc(=O)[nH]c2ccc(S(=O)(=O)N3CCCCCC3)cc12)CC(C)C	–	inconclusive [inhibitor, single point]
COc1ccc(C2=Nc3ccccc3NC(=O)C2N(C(=O)c2cc3ccccc3[nH]2)c2ccccc2)cc1 (configuration not stated)	–	inconclusive [inhibitor, single point]
COc1ccc(CCNC(=O)CNS(=O)(=O)c2ccc(Cl)cc2)cc1	–	inactive

Compound	activity change, negative = growth inhibition	Potency
CCn1c(NCc2ccco2)nc2c1c(=O)n(C)c(=O)n2C	–	inconclusive [inhibitor, single point]
CCOc1cc(S(=O)(=O)NCc2ccc(OC)cc2)c(OCC)cc1-n1cnnn1	–	active: 4.11 µM
CCN1CCN(Cc2ccc(NC(=O)c3ccc(C)c(NC(=O)c4cccc(-c5cn[nH]c(=O)c5)c4)c3)cc2C(F)(F)F)CC1	–	inconclusive [inhibitor, single point]
CCOc1ccc2oc(=O)cc(CN3CCN(c4cc(C)ccc4C)CC3)c2c1	–	active: 14.6 µM
Nc1ccc2c(c1)-c1ccc(F)cc1C2=O	–	inconclusive [inhibitor, single point]
Cc1cc(N2C(=O)C(=O)/C(=C(/O)c3ccc(F)cc3)C2c2ccc(Cl)cc2)no1 (configuration not stated)	–	inconclusive [inhibitor, single point]
O=C(Oc1c(-c2ccccc2)c(=O)n2c3c(cccc13)CC2)c1ccc(Cl)cc1	–	inactive
CC(Sc1ccccc1)C(=O)NN=C1CCCCCC1 (configuration not stated)	–	inactive
COc1ccc(C2=NN(C3=NN=C(N)Cc4ncnn43)C(O)(C(F)(F)F)C2)cc1 (configuration not stated)	–	inactive
COc1ccc(NC(=O)CC(c2ccccc2)c2ccco2)cc1 (configuration not stated)	–	inconclusive [inhibitor, partial curve, poor fit]
C=C(C)C1CC[C@]2(CO)CC[C@@]3(C)[C@H](CCC4[C@@]5(C)CCC(O)C(C)(C)C5CC[C@@]43C)C12 (some centres not stated)	–	inactive
CC(C)[C@H](NC(=O)C1CCN(S(=O)(=O)c2ccccc2)CC1)C(=O)NCc1ccccc1	–	inconclusive [inhibitor, partial curve]
O=C(NCc1ccc(F)cc1)c1ccc(CS(=O)(=O)c2ccc(Br)cc2)o1	–	inconclusive [inhibitor, single point]
Cc1cccc2sc(NC(=O)CN(C)S(=O)(=O)c3cccs3)nc12	–	inconclusive [inhibitor, single point]
COc1ccc(S(=O)(=O)N2CCCCC2)cc1Br	–	inactive
CC(C)COc1ccc(C(=O)Nc2scc(-c3ccc(Cl)cc3Cl)c2C(N)=O)cc1	–	active: 16.4 µM
COc1ccc(OC)c(C(c2nnnn2C2CCCC2)N2CCc3ccccc3C2)c1 (configuration not stated)	–	inconclusive [inhibitor, single point]
Cc1nc2ccc(NC(=O)Cc3cccs3)cc2s1	–	inconclusive [inhibitor, partial curve]
O=C(Nc1ccc2oc(-c3ccc(O)c(Br)c3)nc2c1)c1cc2ccccc2o1	–	inactive
COc1ccc(-c2nnc(SCC(=O)Nc3cc(S(=O)(=O)N4CCCCC4)ccc3Cl)n2N)cc1	–	inconclusive [inhibitor, single point]
COc1cc2[nH]c(C(=O)N3CCN(c4ccccc4F)CC3)cc2c(OC)c1OC	–	inconclusive [inhibitor, single point]
CCOC(=O)C1=C(O)/C(=C/c2cn(CC(=O)N3CCCC3)c3ccccc23)SC1=Nc1ccccc1	–	active: 18.4 µM
COc1cc2nc(Cl)nc(NC(C)C)c2cc1OC	–	active: 14.1 µM
